From PubChem BioAssay AID686978 (National Center for Advancing Translational Sciences (NCATS), 2013)
About 64,000 (15%) of roughly 420,000 compounds were called active. The call rests on the fitted dose curve; in most records, active means well fitted inhibition curve with a large enough effect; inconclusive means small, poorly fitted or top-dose-only effect; inactive means flat fitted curve, though single readings scatter. Inconclusive means that the source gave no clear call. No potency is given beside an inconclusive call; the fits are too rough.

assay: qHTS for Inhibitors of human tyrosyl-DNA phosphodiesterase 1 (TDP1): qHTS in cells in absence of CPT; conditions: DT40 Tdp1-/- hTDP1 cells, no CPT, ATP luminescence, 48 h; series mostly up to 46.2 µM; further: nearly all actives have a fitted effect of over 55% in size
Source text: Human tyrosyl-DNA phosphodiesterase 1 (TDP1) is a novel repair gene, and we propose to use it as a new target for anticancer drug development. TDP1 is not an essential protein, but under treatment with topoisomerase I poison (camptothecin: CPT), TDP1 works as a critical factor for cell survival. To directly identify novel TDP1 inhibitors active in a cellular environment, we have knocked-out the Tdp1 gene in chicken DT40 cells (Tdp1-/-) and generated a complemented counterpart cells that contains a stable transfection of the human TDP1 gene (Tdp1-/-;hTDP1 cells). For the primary screen, Tdp1-/-;hTDP1 cells will be exposed to small molecules in the presence or absence of CPT, and their growth kinetics will be evaluated after 48 hours by measuring ATP activity. […] The hit compounds will then be evaluated in the presence or absence of CPT using Tdp1-/- cells. […]
DT40-hTDP1 cells without 20 nM Camptothecin (add 20 microL of DMSO in 1 L of cell culture medium) were dispensed at 400 cells/5microL/well in tissue culture treated 1536-well white wall/solid bottom assay plates (Greiner Bio-One North America, NC, U.S.A.) using a Multidrop Combi 8 channel dispenser (Thermo Fisher, Waltham, MA, USA). […] Luminescence was read using ViewLux (Perkin Elmer) with 1 sec exposure slow speed, high gain and 2x binning.
Potency means the concentration at half of the fitted maximal effect; tags describe the fitted curve by direction and shape.

| Structure (SMILES) | Potency |
| --- | --- |
| CC(c1ccccc1)N1C(=O)c2ccc(C(=O)Nc3ccc(Br)cc3C(=O)O)cc2C1=O (stereo unspecified) | inconclusive [inhibitor, full curve, poor fit] |
